Test results from the supplement of paper PMC9446081.
The campaign covered roughly 39,000 compounds. About 220 (0.56%) showed activity. Some of the results follow.

Tested on: Escherichia coli K-12 BW25113
Test: relative growth (OD600 normalised to plate interquartile mean) (fraction); higher = less growth inhibition, active = 0.2 or less
Details: 50 µM; LB; incubation time: overnight (16-24 h)
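Also: static incubation at 37 °C against the wild-type strain, values averaged over two biological replicates.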

| SMILES | relative growth |
| --- | --- |
| C[C@H](CO)N1C[C@H](C)[C@@H](CN(C)Cc2ccc(Oc3ccccc3)cc2)Oc2ccc(NC(=O)Nc3ccc(C(F)(F)F)cc3)cc2CC1=O | inactive: 1.03 |
| COc1ccc(S(=O)(=O)N(C)C[C@@H]2Oc3ccc(NC(=O)c4ccncc4)cc3C(=O)N([C@H](C)CO)C[C@@H]2C)cc1 | inactive: 0.987 |
| C[C@H](CO)N1C[C@H](C)[C@H](CN(C)Cc2ccc(C(F)(F)F)cc2)Oc2ccc(NC(=O)CCC(F)(F)F)cc2CC1=O | inactive: 1.06 |
| CC(C(=O)O)c1ccc(-c2ccccc2)c(F)c1 (configuration not stated) | inactive: 1.03 |
| C[C@@H]1CCCCO[C@@H](CN(C)Cc2ccc(Cl)c(Cl)c2)[C@H](C)CN([C@H](C)CO)C(=O)c2cc(NS(=O)(=O)c3ccc(Cl)cc3)ccc2O1 | inactive: 0.99 |
| C[C@@H]1O[C@@H](OC[C@H]2O[C@@H](Oc3c(-c4ccc(O)cc4)oc4cc(O)cc(O)c4c3=O)[C@H](O)[C@@H](O)[C@@H]2O)[C@H](O)[C@H](O)[C@H]1O | inactive: 1.02 |
| C[C@@H]1CCCCO[C@@H](CN(C)C(=O)Nc2ccc(C(F)(F)F)cc2)[C@H](C)CN([C@H](C)CO)C(=O)c2cc(NS(=O)(=O)c3cccs3)ccc2O1 | inactive: 1.03 |
| C[C@@H]1CN([C@@H](C)CO)C(=O)c2cc(NS(=O)(=O)c3cn(C)cn3)ccc2O[C@H]1CN(C)S(=O)(=O)c1cccs1 | inactive: 0.981 |
| C[C@@H]1CN([C@H](C)CO)C(=O)c2cccc(NC(=O)Nc3ccc(F)cc3)c2O[C@H]1CN(C)Cc1ccc(C(=O)Nc2ccccc2N)cc1 | inactive: 1.01 |
| Cc1cc(O)c2c(c1)C(=O)c1cccc(O)c1C2=O | inactive: 1.07 |
| NC(=O)c1cn(Cc2c(F)cccc2F)nn1 | inactive: 0.998 |
| CC(C[N+](C)(C)C)OC(N)=O.[Cl-] (configuration not stated) | inactive: 1.13 |
| C[C@@H]1CN([C@H](C)CO)C(=O)Cc2cc(NC(=O)Nc3ccccc3)ccc2O[C@@H]1CN(C)Cc1ccc(-c2ccccc2)cc1 | inactive: 0.985 |
| C[C@H](CO)N1C[C@H](C)[C@H](CN(C)S(=O)(=O)c2cn(C)cn2)OCc2ccccc2-c2c(n(C)c3ccccc23)C1=O | inactive: 1.03 |
| C[C@@H]1CCCCO[C@@H](CN(C)S(=O)(=O)c2cccs2)[C@@H](C)CN([C@H](C)CO)C(=O)c2cc(NC(=O)C3CCCCC3)ccc2O1 | inactive: 0.99 |
| COc1ccc(CN(C)C[C@H]2OCCCC[C@@H](C)Oc3ccc(NC(=O)Cc4ccccc4)cc3C(=O)N([C@H](C)CO)C[C@H]2C)cc1 | inactive: 0.994 |
| C[C@H]1CN([C@@H](C)CO)C(=O)c2cc(C#Cc3cccnc3)cnc2O[C@@H]1CN(C)Cc1ccc(F)cc1 | inactive: 0.993 |
| C[C@H]1CN([C@@H](C)CO)C(=O)c2cccc(NS(=O)(=O)c3cn(C)cn3)c2O[C@H]1CN(C)S(=O)(=O)c1cn(C)cn1 | inactive: 0.986 |
| Cc1ccc(S(=O)(=O)Nc2ccc3c(c2)C(=O)N([C@@H](C)CO)C[C@@H](C)[C@H](CN(C)Cc2ccc(C(F)(F)F)cc2)OCCCC[C@@H](C)O3)cc1 | inactive: 0.903 |

| SMILES | relative growth |
| --- | --- |
| COc1ccc(NC(=O)N(C)C[C@@H]2OCCCC[C@@H](C)Oc3ccc(NS(=O)(=O)c4cccs4)cc3C(=O)N([C@@H](C)CO)C[C@H]2C)cc1 | inactive: 1.03 |
| CC(=O)O[C@@H]1[C@@H](OC(C)=O)[C@H](C)O[C@@H](O[C@H]2[C@H](OC/C=C(\C)CC/C=C(\C)CC/C=C(\C)CCC=C(C)C)O[C@H](CO[C@@H]3O[C@@H](C)[C@H](O)[C@@H](O)[C@H]3O)[C@@H](O)[C@@H]2O)[C@@H]1OC(C)=O | inactive: 0.793 |
| CNC[C@@H]1Oc2ccc(NC(=O)Cn3cnnn3)cc2C(=O)N([C@@H](C)CO)C[C@H]1C | inactive: 0.977 |
| C[C@@H]1CN([C@H](C)CO)C(=O)c2cc(NC(=O)C3CCCCC3)ccc2O[C@@H](C)CCCCO[C@@H]1CN(C)C(=O)CCC(F)(F)F | inactive: 1.02 |
| COc1ccc(NC(=O)N(C)C[C@@H]2Oc3ccc(NC(=O)Cn4cnnn4)cc3CC(=O)N([C@H](C)CO)C[C@H]2C)cc1 | inactive: 1.01 |
| COc1ccc(S(=O)(=O)Nc2cccc3c2O[C@@H](CN(C)Cc2ccc(Cl)c(Cl)c2)[C@H](C)CN([C@H](C)CO)C3=O)cc1 | inactive: 1.03 |
| C[C@H](CO)N1C[C@H](C)[C@H](CN(C)Cc2ccncc2)Oc2ccc(NC(=O)Cn3cnnn3)cc2C1=O | inactive: 0.985 |
| O=C(OCC(O)CO)c1ccccc1Nc1ccnc2cc(Cl)ccc12 (configuration not stated) | inactive: 0.85 |
| COc1cc(OC)cc(-c2ccc([C@H]3CC(=O)C[C@@H](c4ccccc4)C34C(=O)c3ccccc3C4=O)cc2)c1 | inactive: 1.02 |
| Cn1c(=O)c2c(nc(N3CCOCC3)n2CCN)n(C)c1=O | inactive: 1.02 |
| C[C@H]1CN([C@@H](C)CO)C(=O)c2cccc(NS(C)(=O)=O)c2O[C@H]1CN(C)C(=O)Nc1ccc2c(c1)OCO2 | inactive: 0.994 |
| C[C@@H](O)C#Cc1ccc2c(c1)O[C@H](CN(C)C(=O)Nc1ccccc1)[C@@H](C)CN([C@@H](C)CO)S2(=O)=O | inactive: 0.974 |
| COC(=O)C1=CO[C@@H](O[C@@H]2O[C@H](CO)[C@@H](O)[C@H](O)[C@H]2O)[C@@H]2[C@@H](C)[C@@H](OC(=O)/C=C/c3ccc(O)cc3)[C@@H](O)[C@H]12 | inactive: 1.02 |
| COCC(=O)Nc1ccc2c(c1)OC[C@H](C)N(Cc1cccc(F)c1)C[C@@H](C)[C@H](OC)CN(C)C2=O | inactive: 0.999 |
| C[C@H](CO)N1C[C@H](C)[C@H](CN(C)C(=O)c2ccc3c(c2)OCO3)Oc2ncc(C#Cc3ccccc3F)cc2C1=O | inactive: 1.03 |
| C[C@@H]1CN([C@H](C)CO)C(=O)Cc2cc(NC(=O)Cc3ccccc3)ccc2O[C@H]1CN(C)C(=O)Nc1ccc(C(F)(F)F)cc1 | inactive: 0.997 |
| Cc1noc(C)c1NC(=O)Nc1ccc2c(c1)C(=O)N([C@@H](C)CO)C[C@@H](C)[C@H](CN(C)C(=O)Nc1ccc3c(c1)OCO3)OCCCC[C@H](C)O2 | inactive: 1.05 |
| C[C@@H]1CCCCO[C@H](CN(C)Cc2ccc(C(F)(F)F)cc2)[C@@H](C)CN([C@H](C)CO)C(=O)c2cc(NC(=O)CCC(F)(F)F)ccc2O1 | inactive: 0.933 |
| C[C@@H]1CCCCO[C@@H](CN(C)C(=O)Nc2ccc(C(F)(F)F)cc2)[C@@H](C)CN([C@H](C)CO)C(=O)c2cc(NS(C)(=O)=O)ccc2O1 | inactive: 0.961 |

| SMILES | relative growth |
| --- | --- |
| CC(C)NC(=O)Nc1ccc2c(c1)C(=O)N([C@@H](C)CO)C[C@H](C)[C@H](CN(C)S(=O)(=O)c1ccc(F)cc1)O2 | inactive: 1.02 |
| C[C@H](CO)N1C[C@H](C)[C@@H](CN(C)C(=O)Cc2ccccc2)OCCCC[C@H](C)Oc2ccc(NC(=O)c3ccccc3)cc2C1=O | inactive: 1.03 |
| O=C1O[C@H](c2ccccc2)[C@H](c2ccccc2)N2[C@H]1[C@@H](C(=O)O)[C@]1(C(=O)Nc3ccc(C#CC4=CCCCC4)cc31)[C@H]2C1CCCCC1 | inactive: 0.896 |
| O=C(C[C@@H]1C[C@@H]2c3cc(NS(=O)(=O)c4ccc(F)cc4)ccc3O[C@@H]2[C@H](CO)O1)NCc1cccc(F)c1 | inactive: 0.995 |
| CN1CCN(C(=O)[C@@H]2[C@@H](CO)[C@@H]3Cn4c(ccc(-c5cncnc5)c4=O)[C@@H]3N2CC2CC2)CC1 | inactive: 0.98 |
| COC[C@@H]1c2nnn(C)c2CCN1S(=O)(=O)c1cn(C)cn1 | inactive: 0.985 |
| NC(=O)c1ncn(C2OC(CO)C(O)C2O)c1O (configuration not stated) | inactive: 0.968 |
| COc1ccc(S(=O)(=O)N(C)C[C@H]2Oc3ccc(NS(C)(=O)=O)cc3CC(=O)N([C@H](C)CO)C[C@@H]2C)cc1 | inactive: 0.985 |
| CC(C)(C)S(=O)N1Cc2cc(C(=O)NCc3ccc(Oc4ccccc4)cc3)nc(-c3cccc(C#CCC4CCCC4)c3)c2[C@@H]1CCO (some centres not stated) | inactive: 0.977 |
| C[C@@H]1CN([C@H](C)CO)C(=O)c2ccccc2-c2ccccc2CO[C@@H]1CN(C)C(=O)Nc1cccc(C(F)(F)F)c1 | inactive: 0.979 |
| C[C@@H]1CN([C@@H](C)CO)C(=O)c2cc(NS(=O)(=O)c3cccs3)ccc2O[C@@H](C)CCCCO[C@H]1CN(C)C(=O)c1ccccc1 | inactive: 1 |
| COc1ccc(CN(C)C[C@H]2OCCCC[C@@H](C)Oc3ccc(NC(=O)Nc4ccc(C(F)(F)F)cc4)cc3C(=O)N([C@H](C)CO)C[C@H]2C)cc1 | inactive: 1 |
| O=C(C[C@H]1C[C@@H]2c3cc(NC(=O)C4CCOCC4)ccc3O[C@@H]2[C@H](CO)O1)NCCN1CCCCC1 | inactive: 0.994 |
| COc1cccc(NC(=O)N2C[C@@H](O)COC[C@H]3O[C@H](CC(=O)NC4Cc5ccccc5C4)CC[C@@H]32)c1 | inactive: 0.972 |
| O=C(CCc1ccc(O)cc1)c1c(O)cc(O)cc1O[C@@H]1O[C@H](CO)[C@@H](O)[C@H](O)[C@H]1O | inactive: 0.983 |
| Cc1noc(C)c1NC(=O)N(C)C[C@H]1OCCCC[C@@H](C)Oc2ccc(NC(=O)NC3CCCCC3)cc2C(=O)N([C@@H](C)CO)C[C@H]1C | inactive: 1 |
| CC(=O)OC1CCC2(C)C(=CCC3C2CCC2(C)C(C(C)CCCC(C)C)CCC32)C1 (configuration not stated) | inactive: 0.866 |
| C[C@@H]1CN([C@H](C)CO)C(=O)c2cc(NC(=O)Cn3cnnn3)ccc2O[C@@H]1CN(C)Cc1ccc(Oc2ccccc2)cc1 | inactive: 1.01 |
| Cc1ccsc1C=CC1=NCCCN1C.O=C(O)CC(O)(CC(=O)O)C(=O)O | inactive: 0.986 |
